From PubChem BioAssay AID1963576 (National Center for Advancing Translational Sciences (NCATS), 2024)
Out of some 46,000 compounds screened, about 60 (0.1%) were called active. Another 3% or so got no clear call; they are omitted. The call rests on the fitted dose curve; in most records, active means well fitted inhibition curve with a large enough effect; inconclusive means small, poorly fitted or top-dose-only effect; inactive means no such curve, though single readings can be large or run the other way. This is one part of the list.

assay: Primary qHTS assay for Inhibitors of ovarian cancer metastasis using an organotypic tumor microenvironment (TME) model.; further: nearly all actives have a fitted effect of over 65% in size;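 on activity change, negative = inhibition: plate controls were DMSO wells for no effect and tomatine positive control wells for full effect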; conditions: SKOV3ip1-GFP adhesion/invasion on 3D omental model, fluorescence; series mostly up to 45.8 µM; activity change, negative = inhibition: at the top concentration
Procedure, shortened: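 Primary human omental fibroblast/mesothelial 3D culture pre-formed 48 h. SKOV3ip1-GFP cells added with compounds (0.36-46 umol/L), incubated 2 h RT/16 h 37 C, fixed; GFP cells quantified at 488/509 nm.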

outcome, inactive:
Cc1cccc(C(=O)Nc2cccc(OCc3cc(=O)n4c(C)csc4n3)c2)c1, COC(=O)c1ccc(Cl)c(NC(=O)C2CCN(S(=O)(=O)Cc3ccccc3)CC2)c1, CCn1cc(C(=O)N(C)Cc2ccccc2)c(=O)c2cc(S(=O)(=O)N3CCCCCC3)ccc21, COc1ccc(-c2noc(CCC(=O)NCc3ccc(OC)cc3OC)n2)cc1, CCC(CC)C(=O)Nc1ccc2nc(SCC(=O)N3c4ccccc4CC3C)sc2c1 (stereo not given), CCC(C)NC(=O)CSc1nc2cc3c(cc2c(=O)n1CCCC(=O)NCc1ccc2c(c1)OCO2)OCO3 (stereo not given), COc1cc(OC)c(Nc2ncnc3onc(-c4cccc(Cl)c4)c23)cc1Cl, Cc1ccc(CN(Cc2ccco2)C(=O)c2oc3c(C)c(C)ccc3c2C)cc1, Cc1cc(C)cc(NC(=O)C2(c3cccs3)CCOCC2)c1, Clc1ccccc1Cc1cn2cc(-c3ccccc3)nc2s1, CC(C)COc1ccccc1C1CC(=O)Nc2cc3c(cc21)OCO3 (stereo not given), COc1ccccc1Nc1ncnc2c1nc1n2CCCC1, COc1ccc(NC(=O)Cn2ccn(-c3ccccc3)c(=O)c2=O)cc1, COC(=O)C1=C(C)NC(=O)C1(NC(=O)c1ccccc1C)C(F)(F)F (stereo not given), COc1ccc(CN2C(=O)C(NC(=O)c3ccccc3OC)(C(F)(F)F)N=C2c2ccccc2)cc1 (stereo not given), CC(=O)N1CCc2c(sc3c2c(=O)n(Cc2ccccc2)c(=O)n3CC(=O)Nc2ccc(C)c(F)c2)C1, CCOC(=O)c1cnn(-c2cccc(F)c2)c1C1CCNCC1, CCOc1cc(C(=O)NCc2ccc3c(c2)CCN3C(=O)CC)cc(OCC)c1OCC, CCCCN(CC)CCCNC(=O)c1cn(C)c2ccc(S(=O)(=O)N(C)C3CCCCC3)cc2c1=O, O=C(NCc1ccc(F)cc1)C1CCN(C(=O)c2cnn(-c3ccccc3)c2-n2cccc2)CC1, COc1ccc(-c2[nH]ncc2C(=O)NCc2ccc(F)cc2)cc1, CCCOc1ccc(CNC(=O)C2CCN(c3nc4ccccc4nc3C(F)(F)F)CC2)cc1, Cc1cc(NS(=O)(=O)c2ccc(NC(=O)COc3c(C)cc(Br)cc3C)cc2)no1

Activity change, negative = inhibition, inactive:
CCc1ccc(NC(=O)C(=O)NCC(c2cccnc2)N2CCOCC2)cc1 (stereo not given) 3.89%, COc1ccc(OCC(=O)NCCS(=O)(=O)N2CCN(c3cccc(Cl)c3)CC2)cc1 -5.42%, O=C(Nc1cccc(Br)c1)c1cccc(S(=O)(=O)N2CCCCCC2)c1 -0.892%, CC(C)Oc1ccc(CNC(=O)c2ccc3nc(Cc4ccccc4)oc3c2)cc1 0.987%, Clc1ccc(C(c2ccccc2Cl)C(Cl)Cl)cc1 (stereo not given) -3.74%, CCOC(=O)c1c(C)sc(-c2c(-c3ccc(OC)c(F)c3)[nH]c3c2c(=O)[nH]c(=O)n3C)c1O -21.5%, Cc1cc(C)cc(OCC(=O)N(Cc2ccc(C)o2)C2CCS(=O)(=O)C2)c1 (stereo not given) -7.21%, Cc1ccc(-c2nn3c(=O)cc(CN4CCN(C(=O)Nc5cc(Cl)ccc5C)CC4)nc3s2)cc1 -1.07%, COc1ccc(Cl)cc1NC(=O)c1c(NCc2ccc(C)o2)sc2c1CCCC2 4.7%, COc1cccc(N(CC(=O)N2CCC(C)CC2)S(=O)(=O)c2ccc(C)cc2)c1 1.25%, COCCNC(=O)c1cc2c(Cl)nc3ccc(C)cc3c2s1 19.5%, C=C1C(=CC=C2CCCC3(C)[C@@H]([C@H](C)C=CC=CC(O)(CC)CC)CC[C@@H]23)C[C@@H](O)C[C@@H]1O (stereo not given in full) 3.74%, CC(C)c1ccc(Nc2ncnc3c2c(-c2ccccc2)cn3-c2ccccc2)cc1 8.74%, COc1ccccc1CNC(=O)Cn1nc(C)c2nn(-c3ccc(Cl)cc3)c(C)c2c1=O -0.538%, C=CCc1c(C)nc2nc(SCC(=O)Nc3ccc(OCC)cc3)nn2c1C 4.86%, Cn1c(=O)c2c(-c3ccccc3Br)n(CCc3ccccc3)cc2n(C)c1=O 115%, CCCCOc1ccc(C2=NC(c3ccccc3)=Nc3ccc(OC)cc3N2)cc1 2.11%, CCc1ccc(NC(=O)CSc2nnc(-c3cc4occc4n3C)n2-c2ccccc2C)cc1 30.8%, COc1cccc(CNC(=O)Cn2ccc3cc(S(=O)(=O)N4CCC(C)CC4)ccc32)c1 -1.76%, Clc1cccc(-n2ncc3c(N4CCN(Cc5ccccc5)CC4)ncnc32)c1 -8.55%, COc1ccccc1NC(=O)CSc1nnc2c3ccccc3n(C)c2n1 0.123%, Cc1ccc(-n2nc(C)c3c(C(=O)Nc4ccc(Br)c(C)c4)cc(C)nc32)cc1 10.5%, Cc1cccc(C)c1OCC(=O)N[C@@H](Cc1ccccc1)[C@@H](O)C[C@H](Cc1ccccc1)NC(=O)[C@H](C(C)C)N1CCCNC1=O 1.24%, Cc1ccc(-c2nc3cccnc3s2)cc1NC(=O)Cc1ccccc1 -9.3%, CCOCCCn1c(=N)c(C(=O)NCC2CCCO2)cc2c(=O)n3cc(C)ccc3nc21 (stereo not given) -8.48%, COc1cccc(-c2nc(SCC(=O)N3CCc4ccccc43)c3c(=O)n(C)c(=O)n(C)c3n2)c1 6.01%, COc1ccc(CCC(=O)NCc2ccc3c(c2)CCN3C(=O)c2ccc(C)cc2)cc1 11.1%, COCCNC(=O)CSc1nc(-c2ccc(C)cc2)nc2c1c(=O)n(C)c(=O)n2C 2.07%, COc1ccccc1NC(=O)c1c(NC(=O)c2ccccc2Cl)sc2c1CCC2 -5.05%, c1ccc(CNc2nc(N3CCOc4ccccc43)nc3c2CCCC3)cc1 3.19%, CCOc1ccccc1CNC(=O)CN1C(=O)CCc2cc(S(=O)(=O)N3CCCCC3)ccc21 51.6%, CCOC(=O)c1c(-c2ccccc2)oc2ccc(NS(=O)(=O)c3ccc(C(C)C)cc3)cc12 0.469%, CCc1ccc(S(=O)(=O)c2nnn(-c3cccc(C)c3)c2N)cc1 11.7%, CCc1ccc(NC(=O)CCn2cnc3ccccc3c2=O)cc1 3.29%, Cn1c(=O)c(=O)n(C)c2cc(NC(=O)c3ccccc3Br)ccc21 3.67%, CCOc1ccc(CNC(=O)CCCn2c(=O)c3cccn3c3ccc(F)cc32)cc1 2.4%, CCc1ccccc1NC(=O)c1cnn2c(C(F)(F)F)cc(-c3ccc(OC)c(OC)c3)nc12 3.64%, COc1cc(OC)c(NC(=O)Cn2c(=O)cc(C(F)(F)F)c3c(C)nn(C)c32)cc1Cl -1.64%, COCCNC(=O)C(=O)Nc1c2c(nn1-c1ccccc1)CS(=O)(=O)C2 13.8%, COc1ccccc1CNc1nc(-c2ccco2)nn1S(=O)(=O)c1ccc(Cl)cc1 -3.1%, COc1cc(C(=O)Nc2ccc(-c3cc(C(F)(F)F)nn3-c3ccccc3)cc2)cc(OC)c1OC -10.9%, CCOc1ccc(CCNC(=O)Cn2nc(C)c3c(C)n(-c4ccccc4)nc3c2=O)cc1OCC -7.69%, CCOC(=O)c1c(C)sc(-c2c(-c3cc(C)ccc3C)[nH]c3c2c(=O)[nH]c(=O)n3C)c1O 0.0933%, Cc1cccc(NC(=O)Cn2nc(N3CCN(c4ccccc4)CC3)ccc2=O)c1C -4.02%, COc1ccccc1OCc1ccc(C(=O)Nc2ccc(C)c(C)c2)o1 -9.77%, Cc1ccccc1NC(=O)CN(C)S(=O)(=O)c1cccc2nsnc12 2.51%, COc1cccc(CNC(=O)CCC(=O)N2CC3CCCN3c3ccccc32)c1 (stereo not given) 3.06%, O=C(Nc1ccccc1C(=O)O)c1cccc(S(=O)(=O)N2CCCC2)c1 -22.2%, CCc1cccc(NC(=O)Cn2c(=O)n(CC3CCC(C(=O)NCCc4ccccc4)CC3)c(=O)c3ccccc32)c1 (stereo not given) 0.459%, Cc1ccc(C(=O)N2CCN(c3ccccc3F)CC2)cc1NC(=O)c1nsc2ccccc12 16.1%, CCC(Cn1nnc2ccccc2c1=O)NC(=O)Nc1cccc(Cl)c1 (stereo not given) -43.6%, COc1ccc(Cl)cc1NC(=O)CN1c2ccccc2S(=O)(=O)c2ccccc21 -23.2%, O=C(CSC1=Nc2ccccc2N=C(c2ccc(F)cc2)C1)Nc1cc(F)ccc1F 36.9%, CN(C(=O)Nc1cn(C)c(=O)c2ccccc12)c1ccccc1 -9.19%, O=C(NC1CC(=O)N(c2cccc(F)c2)C1)C1CCCCC1 (stereo not given) -0.344%, COc1ccccc1CCNC(=O)Cc1c(C)c2c(cc(C)c3c(C)coc32)oc1=O 6.04%, COc1ccc(N2C(=O)C(CC(=O)Nc3ccc(F)cc3)N(CCC3=CCCCC3)C2=O)cc1 (stereo not given) 1.15%, CCCCNc1cc(NC2CCCCC2)c2c3c(onc13)-c1ccccc1C2=O -3.28%, COc1ccccc1CCNC(=O)c1cc2ccccn2n1 -11.3%, COCCCNC(=O)c1c(NC(=O)c2cc(=O)c3cc(C)c(C)cc3o2)sc2c1CCCC2 7.69%, CCCN1C(=O)CN(C2CCCCCC2)C(=O)C1c1ccc(OCC)c(OC)c1 (stereo not given) 0.835%, O=C(CCC1N=C2c3ccccc3N=C(SCc3cccc(F)c3)N2C1=O)NC1CCCCC1 (stereo not given) -10.6%, CC1=C(C(=O)Nc2ccccc2Cl)C(c2cccs2)n2ncnc2N1 (stereo not given) 3.23%, COC(=O)c1cc2sccc2n1Cc1ccccc1 -10.5%, CCn1cc2nc(SCc3cccc(OC)c3)n(Cc3ccc(Cl)cc3)c(=O)c2n1 -12.4%, N#CC[C@H](C1CCCC1)n1cc(-c2ncnc3[nH]ccc23)cn1 36.9%, Cc1ccc(SCC(=O)Nc2cccc(-c3nc4cc(Cl)ccc4o3)c2C)cc1 -9.69%, COc1cccc(NS(=O)(=O)c2ccc3[nH]cc(C(=O)NC4CCCCC4)c(=O)c3c2)c1 8.83%, O=S(=O)(NCc1ccccc1)c1ccc2[nH]c3c(c2c1)CCCCC3 -2.18%, CCOC(=O)C1CCCN(C(=O)c2cc3c(=O)n(C)c4ccccc4c3s2)C1 (stereo not given) 2.06%, Cc1c(CNC(C)c2ccccc2)c(C(=O)O)c(C)n1Cc1c(F)cccc1Cl (stereo not given) 2.08%, CCOC(=O)N1CCN([N+]([O-])=NOc2cc(ON=[N+]([O-])N3CCN(C(=O)OCC)CC3)c([N+](=O)[O-])cc2[N+](=O)[O-])CC1 21%
